The campaign covered roughly 310,000 compounds. About 14,000 (4.5%) showed an effect of 50% or more. Effects have a minus sign here. Some of the results follow.
molecular target: human ether-à-go-go-related gene (hERG) potassium channel (human, UniProt Q12809); test: primary screen, population patch clamp on CHO cells stably expressing hERG
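Note: peak tail current of the secondary pulse compared with the same well before compound.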

Sequence of human ether-à-go-go-related gene (hERG) potassium channel (Q12809 whole entry, looked up): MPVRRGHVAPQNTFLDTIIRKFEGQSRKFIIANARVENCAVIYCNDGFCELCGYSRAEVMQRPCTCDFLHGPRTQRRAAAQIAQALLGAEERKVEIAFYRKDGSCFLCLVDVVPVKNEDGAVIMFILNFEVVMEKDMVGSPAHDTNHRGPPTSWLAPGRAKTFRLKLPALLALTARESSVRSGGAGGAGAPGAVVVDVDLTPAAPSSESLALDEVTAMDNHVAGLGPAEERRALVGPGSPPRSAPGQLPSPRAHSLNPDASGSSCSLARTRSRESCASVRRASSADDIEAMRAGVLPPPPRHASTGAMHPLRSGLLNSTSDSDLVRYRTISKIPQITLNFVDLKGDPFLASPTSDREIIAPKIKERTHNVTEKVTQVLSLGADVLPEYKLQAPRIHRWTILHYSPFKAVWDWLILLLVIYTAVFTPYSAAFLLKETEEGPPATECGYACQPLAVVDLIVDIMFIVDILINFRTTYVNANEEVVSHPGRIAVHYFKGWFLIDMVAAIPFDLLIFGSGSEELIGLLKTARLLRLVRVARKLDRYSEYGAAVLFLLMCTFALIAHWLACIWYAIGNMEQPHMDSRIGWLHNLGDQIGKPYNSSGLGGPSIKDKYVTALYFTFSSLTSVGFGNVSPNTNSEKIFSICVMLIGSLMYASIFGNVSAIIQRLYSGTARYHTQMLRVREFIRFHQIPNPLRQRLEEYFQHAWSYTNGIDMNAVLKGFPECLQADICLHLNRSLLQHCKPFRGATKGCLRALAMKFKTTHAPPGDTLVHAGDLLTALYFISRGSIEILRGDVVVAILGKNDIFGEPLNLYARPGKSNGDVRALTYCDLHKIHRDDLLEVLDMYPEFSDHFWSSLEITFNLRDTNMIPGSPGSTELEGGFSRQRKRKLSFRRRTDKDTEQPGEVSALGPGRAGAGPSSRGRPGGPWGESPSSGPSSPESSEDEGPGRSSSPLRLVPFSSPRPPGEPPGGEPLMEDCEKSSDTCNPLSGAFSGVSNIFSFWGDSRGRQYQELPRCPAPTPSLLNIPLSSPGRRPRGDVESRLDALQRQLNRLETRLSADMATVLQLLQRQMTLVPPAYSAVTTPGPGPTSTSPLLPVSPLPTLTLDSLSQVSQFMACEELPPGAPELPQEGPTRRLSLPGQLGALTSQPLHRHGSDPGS

Structure (SMILES)	hERG current change (%, negative = inhibition) at 10uM
CCn1c(P(C)(=O)[O-])nc2ccccc21.[Na+]	8.91%
COc1cccc(/C=C/C(=O)OCC(=O)Nc2ccc(S(=O)(=O)N3CCCC3)cc2)c1	5.99%
CC(C)(C)c1nnc2cccc(Cl)n12	1.56%
CC(NS(=O)(=O)OCC(Cl)(Cl)Cl)c1ccc(C(C)(C)C)cc1 (stereo not shown)	8.59%
COc1ccc(NC(=O)CN(C)S(=O)(=O)c2cnc[nH]2)cc1OC	18.7%
CC(=O)c1ccc(NC(=O)C(C)OC(=O)C2CCN(c3ccc(C(F)(F)F)cn3)CC2)cc1 (stereo not shown)	-10.6%
COc1cc(/C=N/NC(=O)C(=O)NCc2ccco2)ccc1O	-0.759%
COc1ccc2nc(SCC(=O)Nc3c(C)cc(C)cc3C)[nH]c2c1	14.5%
Cn1c(SCC(=O)NC2CC2)nnc1C(F)(F)F	-1.32%
CCn1c(C)nc2c1C(=O)c1ccccc1C2=O	-5.13%
O=S(=O)(CCc1ccncc1)Cc1ccc2c3c(cccc13)CC2	1.07%
Cc1ccc(NC(=O)C(Nc2cccc(C)c2)c2ccccc2)cc1 (stereo not shown)	-8.24%
CC(C)CC1CCCCC1OC(=O)CN1CCCCC1 (stereo not shown)	4.84%
Cc1cccc(C(=O)NNC(=O)c2n[nH]c(=O)c3ccccc23)c1C	-14.2%
CC(C)Cc1nnc(NC(=O)CN2C(=O)NC3(CCCC3)C2=O)s1	-9.22%
COc1ccc(S(=O)(=O)N2CCC(C(=O)NCc3cccs3)CC2)cc1	9.4%
Nc1ccc(/C=C/C(=O)c2cccs2)cc1	-0.114%
COc1ccc2oc(C(=O)OCC(=O)N(C)Cc3ccccc3)c(C)c2c1	-13.1%
CC1CCC/C(=N\NC(=S)Nc2ccccc2)C1 (stereo not shown)	7.36%
CCc1ccc(NC(=O)C(=O)NCC(O)c2ccccc2)cc1 (stereo not shown)	8.25%
CCSc1nnc(NC(=O)CSc2c(Cl)cccc2Cl)s1	0.819%
COCCn1c(Sc2ccc(C)cc2)nc2c1c(=O)[nH]c(=O)n2C	-0.808%

Structure (SMILES)	hERG current change (%, negative = inhibition) at 10uM
COc1ccccc1CN1CCN(Cc2nc(-c3ccccc3)no2)CC1	-23.6%
CCOC(=O)/C(C#N)=C/c1ccc(N2CCN(C)CC2)cc1	-27.8%
C/C(=N\NC(=O)c1cccc([N+](=O)[O-])c1)c1ccco1	-9.5%
COC(=O)c1cc(S(=O)(=O)N2CCC(C)CC2)cn1C	13.1%
COc1cccc(CNC(=O)Cc2ccc(OC)c(S(=O)(=O)N3CCOCC3)c2)c1	8.32%
CCOC(=O)C1(CCOc2ccccc2)CCN(Cc2ccc(O)c(Cl)c2)CC1	-53%
COc1ccc(CNC(=O)c2ccc3oc(C(C)C)nc3c2)cc1	-2.67%
CCn1cc(C(=O)NC2CC(C)(C)Cc3c2cnn3-c2cccc(F)c2)cn1 (stereo not shown)	-23.4%
COc1ccc(CCNC(=O)C2CCN(Cc3nc(-c4cccc(Cl)c4)oc3C)CC2)cc1OC	-85.2%
CCCN1CCN(C(=O)Cn2nc(CC)n3c(cc4sccc43)c2=O)CC1	-16.4%
CCSc1nnc(NC(=O)c2ccc(F)c(S(=O)(=O)N3CCOCC3)c2)s1	3.58%
CC(=O)Nc1ccc2c(c1)nc(CCN1CCN(C)CC1)n2C	-2.56%
CCOC(=O)N1CCN(C(=O)CNC(=O)Cc2ccc(Cl)cc2)CC1	-11.3%
O=C(Nc1ccc(NC(=O)c2ccccc2O)cc1)Nc1ccc(F)cc1F	13.8%
COc1cc2c(c(OC)c1OC)-c1ccc(OC)c(=O)cc1[C@@H](NC(C)=O)CC2	21.3%
CC(=O)c1cccc(NC(=O)CC2S/C(=N/N=C3CCCCCC3)NC2=O)c1 (stereo not shown)	-2.12%
CC(=O)c1ccc(NC(=O)CSc2n[nH]c(-c3cccnc3)n2)cc1	16.7%
COc1ccc(N(CC(=O)NCCc2ccccc2)C(=O)CCC(=O)Nc2nccs2)c(OC)c1	-15.2%
CCCCOC(=O)CSc1nc2c(c(=O)[nH]c(=O)n2C)n1C/C=C(\C)Cl	-20.6%
Cn1ncc(N=Cc2ccccc2[N+](=O)[O-])c1C(N)=O	11.8%
CC(c1ccco1)N(C(=O)C12CC3(C)CC(C)(CC(C)(C3)C1)C2)c1ccccn1 (stereo not shown)	10.1%

— article PMC4336329 (PLoS ONE, 2015)
